# Experimental data: patent US20100055093A1 (RECEPTOR BIOLOGIX, published 2010)
# Molecular target: the molecule itself
# Test: self-association by size exclusion chromatography (apparent over calculated molecular weight)
protein,measurement,value
HFD100T (HER[…]/Fc with His tag) (Fc fusion) not shown,M. Wt. (ap):M. Wt.,5.39
